According to patent US20260092099A1 (SPIN THERAPEUTICS, published 2026):
Like-named read-outs stand apart in the source and are kept apart here. One block for each binder: values may come before it.

Legend:
[1] = target: T1, human neutrophil elastase (human, UniProt P08246 30-247, limits assumed); assay: cell-based or functional assay
T1 sequence (looked up): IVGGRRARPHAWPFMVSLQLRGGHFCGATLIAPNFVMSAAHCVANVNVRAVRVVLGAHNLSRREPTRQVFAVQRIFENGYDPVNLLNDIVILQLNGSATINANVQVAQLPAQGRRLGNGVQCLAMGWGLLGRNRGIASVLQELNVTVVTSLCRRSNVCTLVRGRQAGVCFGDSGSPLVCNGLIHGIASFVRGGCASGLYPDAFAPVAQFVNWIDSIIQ

[2] = target: T1, human neutrophil elastase; assay: cell-based or functional assay; remark: listed apart in the source

IC50 (nM), neutrophil elastase inhibitory assay [1]: 35 nM
B1: AAT-albumin fusion, base C232S, M351V, M358L with K168C/F189C/S283C/P361C (other)
chain: EDPQGDAAQKTDTSHHDQDHPTFNKITPNLAEFAFSLYRQLAHQSNSTNIFFSPVSIATAFAMLSLGTKADTHDEILEGLNFNLTEIPEAQIHEGFQELLRTLNQPDSQLQLTTGNGLFLSEGLKLVDKFLEDVKKLYHSEAFTVNFGDTEEAKKQINDYVEKGTQGCIVDLVKELDRDTVFALVNYICFKGKWERPFEVKDTEEEDFHVDQVTTVKVPMMKRLGMFNIQHSKKLSSWVLLMKYLGNATAIFFLPDEGKLQHLENELTHDIITKFLENEDRRCASLHLPKLSITGTYDLKSVLGQLGITKVFSNGADLSGVTEEAPLKLSKAVHKAVLTIDEKGTEAAGAVFLEAIPLSICPEVKFNKPFVFLMIEQNTKSPLFMGKVVNPTQKGGSGGSGGSGGSGG[skipping about 600 residues]

IC50 (nM), neutrophil elastase inhibitory assay [1]: 5.96 nM
B2: AAT-albumin fusion, base C232S, M351V, M358L with K335A (other)
chain: EDPQGDAAQKTDTSHHDQDHPTFNKITPNLAEFAFSLYRQLAHQSNSTNIFFSPVSIATAFAMLSLGTKADTHDEILEGLNFNLTEIPEAQIHEGFQELLRTLNQPDSQLQLTTGNGLFLSEGLKLVDKFLEDVKKLYHSEAFTVNFGDTEEAKKQINDYVEKGTQGKIVDLVKELDRDTVFALVNYIFFKGKWERPFEVKDTEEEDFHVDQVTTVKVPMMKRLGMFNIQHSKKLSSWVLLMKYLGNATAIFFLPDEGKLQHLENELTHDIITKFLENEDRRSASLHLPKLSITGTYDLKSVLGQLGITKVFSNGADLSGVTEEAPLKLSKAVHAAVLTIDEKGTEAAGAVFLEAIPLSIPPEVKFNKPFVFLMIEQNTKSPLFMGKVVNPTQKGGSGGSGGSGGSGG[skipping about 600 residues]

IC50 (nM), neutrophil elastase inhibitory assay [1]: 7.05 nM
B3: AAT-albumin fusion, base C232S, M351V, M358L with K331F (other)
chain: EDPQGDAAQKTDTSHHDQDHPTFNKITPNLAEFAFSLYRQLAHQSNSTNIFFSPVSIATAFAMLSLGTKADTHDEILEGLNFNLTEIPEAQIHEGFQELLRTLNQPDSQLQLTTGNGLFLSEGLKLVDKFLEDVKKLYHSEAFTVNFGDTEEAKKQINDYVEKGTQGKIVDLVKELDRDTVFALVNYIFFKGKWERPFEVKDTEEEDFHVDQVTTVKVPMMKRLGMFNIQHSKKLSSWVLLMKYLGNATAIFFLPDEGKLQHLENELTHDIITKFLENEDRRSASLHLPKLSITGTYDLKSVLGQLGITKVFSNGADLSGVTEEAPLKLSFAVHKAVLTIDEKGTEAAGAVFLEAIPLSIPPEVKFNKPFVFLMIEQNTKSPLFMGKVVNPTQKGGSGGSGGSGGSGG[skipping about 600 residues]

IC50 (nM), neutrophil elastase inhibitory assay [2]: 34.5 nM
B4: PP12292-J1354 C232S, M351V, M358L (mutant AAT-linker-albumin fusion) (other)
chain: EDPQGDAAQKTDTSHHDQDHPTFNKITPNLAEFAFSLYRQLAHQSNSTNIFFSPVSIATAFAMLSLGTKADTHDEILEGLNFNLTEIPEAQIHEGFQELLRTLNQPDSQLQLTTGNGLFLSEGLKLVDKFLEDVKKLYHSEAFTVNFGDTEEAKKQINDYVEKGTQGKIVDLVKELDRDTVFALVNYIFFKGKWERPFEVKDTEEEDFHVDQVTTVKVPMMKRLGMFNIQHSKKLSSWVLLMKYLGNATAIFFLPDEGKLQHLENELTHDIITKFLENEDRRSASLHLPKLSITGTYDLKSVLGQLGITKVFSNGADLSGVTEEAPLKLSKAVHKAVLTIDEKGTEAAGAVFLEAIPLSIPPEVKFNKPFVFLMIEQNTKSPLFMGKVVNPTQKGGSGGSGGSGGSGG[skipping about 600 residues]

IC50 (nM), neutrophil elastase inhibitory assay [1]: 41.7 nM
B5: AAT-albumin fusion, base C232S, M351V, M358L with S283C/P361C (other)
chain: EDPQGDAAQKTDTSHHDQDHPTFNKITPNLAEFAFSLYRQLAHQSNSTNIFFSPVSIATAFAMLSLGTKADTHDEILEGLNFNLTEIPEAQIHEGFQELLRTLNQPDSQLQLTTGNGLFLSEGLKLVDKFLEDVKKLYHSEAFTVNFGDTEEAKKQINDYVEKGTQGKIVDLVKELDRDTVFALVNYIFFKGKWERPFEVKDTEEEDFHVDQVTTVKVPMMKRLGMFNIQHSKKLSSWVLLMKYLGNATAIFFLPDEGKLQHLENELTHDIITKFLENEDRRCASLHLPKLSITGTYDLKSVLGQLGITKVFSNGADLSGVTEEAPLKLSKAVHKAVLTIDEKGTEAAGAVFLEAIPLSICPEVKFNKPFVFLMIEQNTKSPLFMGKVVNPTQKGGSGGSGGSGGSGG[skipping about 600 residues]
